In the BET-seq Pho4 binding data (Le et al. 2018):
This is one part of the list. Values were computed here from the reads of four pooled replicates and scatter widely.

target: T1, Pho4 (S. cerevisiae) (UniProt P07270); assay: relative binding free energy (BET-seq); higher = weaker binding; settings: reference: library average
T1 sequence: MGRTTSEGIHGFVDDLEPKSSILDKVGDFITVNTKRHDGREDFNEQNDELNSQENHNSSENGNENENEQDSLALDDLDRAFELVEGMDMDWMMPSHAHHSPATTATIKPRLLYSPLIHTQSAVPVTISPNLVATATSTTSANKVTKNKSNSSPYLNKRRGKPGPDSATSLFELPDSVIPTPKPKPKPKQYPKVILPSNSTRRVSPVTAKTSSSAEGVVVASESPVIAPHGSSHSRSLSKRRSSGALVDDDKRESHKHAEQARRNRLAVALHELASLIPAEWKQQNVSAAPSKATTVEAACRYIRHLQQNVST

Sequence | relative binding free energy
TGAAACACGTGAGGCG | 0.33 kcal/mol
ACTGTCACGTGTTGTC | 0.19 kcal/mol
TATTTCACGTGTACAA | 0.43 kcal/mol
AGGTACACGTGGCTTA | 0 kcal/mol
ATTTACACGTGTGGAA | 0.1 kcal/mol
TCCGTCACGTGGAGGG | 0.12 kcal/mol
GGATCCACGTGTTGAT | 0.09 kcal/mol
AGGCTCACGTGTGTAA | 0.24 kcal/mol
CGGTTCACGTGTTGAT | 0.2 kcal/mol
GAAGGCACGTGAATGA | 0.36 kcal/mol
GTTAACACGTGTTCTT | 0 kcal/mol
CTGGACACGTGGGGGT | -0.1 kcal/mol
CGTAACACGTGGTAGT | -0.16 kcal/mol
TTTATCACGTGATGGC | 0.15 kcal/mol
GAATGCACGTGTATGT | 0.17 kcal/mol
GGTGACACGTGAGGTG | 0.31 kcal/mol
GTTATCACGTGATTGC | 0.23 kcal/mol
TAATGCACGTGCGGTA | -0.08 kcal/mol
TTAGGCACGTGTTGTC | -0.13 kcal/mol
GCAGGCACGTGTAGGG | 0.04 kcal/mol
TGGAACACGTGGGGGA | 0.03 kcal/mol
GGTTTCACGTGTTGTC | 0.5 kcal/mol
TAGTGCACGTGGCCGG | -0.03 kcal/mol
TGGGGCACGTGGTCCA | -0.21 kcal/mol
TTGGTCACGTGTCTAA | -0.02 kcal/mol

Sequence | relative binding free energy
AGTTTCACGTGAATAT | 0.25 kcal/mol
GGTGACACGTGTGGCA | 0.1 kcal/mol
GGTAACACGTGGTCTG | -0.04 kcal/mol
GGCTGCACGTGGATGG | 0.11 kcal/mol
ATGGACACGTGAAGGG | 0.2 kcal/mol
TAATGCACGTGAAAGG | 0.26 kcal/mol
TTGGACACGTGAAAAA | 0.53 kcal/mol
TTGTACACGTGCTTGT | 0.08 kcal/mol
GTTTGCACGTGATGAT | 0.08 kcal/mol
AGGGTCACGTGTGCGA | 0.05 kcal/mol
ATGTGCACGTGGAAGA | 0.02 kcal/mol
TATTTCACGTGATAGT | 0.19 kcal/mol
GGTCTCACGTGAGGAT | 0.46 kcal/mol
GTTTGCACGTGTGGGG | 0.08 kcal/mol
TGTAACACGTGTTGTG | -0.04 kcal/mol
TTGTGCACGTGTCGCA | -0.03 kcal/mol
GTATTCACGTGGCGGG | 0.09 kcal/mol
TGTGACACGTGGCTGT | -0.05 kcal/mol
TTAGTCACGTGGAGTA | 0.05 kcal/mol
GGGTCCACGTGTAATG | 0.02 kcal/mol
AAAGACACGTGTGTGT | -0.06 kcal/mol
TAGGTCACGTGGTCCG | 0.1 kcal/mol
GTTCACACGTGGTTGG | 0.07 kcal/mol
TAATTCACGTGCGGTG | 0.22 kcal/mol
CGCTTCACGTGTGGAG | 0.34 kcal/mol

Sequence | relative binding free energy
TCGATCACGTGGTAGG | -0.03 kcal/mol
ATACTCACGTGTGTGG | 0.22 kcal/mol
TAGTTCACGTGTGAGT | 0.43 kcal/mol
AGCGGCACGTGTGCGG | -0.15 kcal/mol
GAACGCACGTGGGGGA | -0.21 kcal/mol
TGATTCACGTGTAGTG | 0.24 kcal/mol
CAGTTCACGTGGGTGT | 0.19 kcal/mol
AGCCGCACGTGAGTGG | 0.17 kcal/mol
AGGGTCACGTGGGTAC | -0.04 kcal/mol
AAGATCACGTGCGGTG | 0.19 kcal/mol
ATGGGCACGTGGCCAG | -0.17 kcal/mol
AGTTCCACGTGGTGGT | -0.14 kcal/mol
TTAGTCACGTGCGTGA | 0.14 kcal/mol
TTAGGCACGTGGAATG | 0.08 kcal/mol
TTGGCCACGTGCGGGC | -0.09 kcal/mol
CGGATCACGTGGTGTG | 0.09 kcal/mol
ATGAACACGTGGGGTC | -0.07 kcal/mol
GTTTTCACGTGGAAGC | 0.32 kcal/mol
AGTGGCACGTGCGTTA | -0.35 kcal/mol
TTTTGCACGTGAGTGG | 0.12 kcal/mol
TAGCGCACGTGGGTTG | -0.2 kcal/mol
GGAGTCACGTGTGTCG | 0.18 kcal/mol
CTGTACACGTGGGTGA | -0.19 kcal/mol
CTTCTCACGTGGGTAG | 0.17 kcal/mol
GACGGCACGTGGCTGG | -0.14 kcal/mol

Sequence | relative binding free energy
TATAACACGTGATTTT | 0.19 kcal/mol
TTCGTCACGTGCGGGT | 0.01 kcal/mol
GAGCGCACGTGGTTGG | -0.02 kcal/mol
GCATTCACGTGAGGTG | 0.29 kcal/mol
GGCGGCACGTGCAGGG | -0.06 kcal/mol
TGTACCACGTGGGTAT | -0.18 kcal/mol
AGGGTCACGTGGCGGC | 0.09 kcal/mol
TCTGTCACGTGTAATG | 0.01 kcal/mol
TAGAACACGTGTTGTA | 0.07 kcal/mol
TTAAGCACGTGTTGCC | 0 kcal/mol
AGCTTCACGTGTGTGA | 0.18 kcal/mol
TTTAGCACGTGTAAAT | 0.08 kcal/mol
GGGCTCACGTGGGTTC | 0.14 kcal/mol
GTCTTCACGTGGGAAG | 0.28 kcal/mol
TGTATCACGTGTTAGT | 0.14 kcal/mol
TAGGGCACGTGGATAA | -0.03 kcal/mol
GTTGCCACGTGGCCGG | -0.09 kcal/mol
GTTAACACGTGTGCTG | 0.08 kcal/mol
ATTTGCACGTGGAAGT | 0.07 kcal/mol
TTTGGCACGTGTCTAA | -0.06 kcal/mol
GAGGGCACGTGCTTTG | 0.08 kcal/mol
GCAATCACGTGAGGGT | 0.28 kcal/mol
TATTGCACGTGGGCGT | -0.2 kcal/mol
GTTTGCACGTGTCTTT | 0.01 kcal/mol
GTATTCACGTGTATTG | 0.25 kcal/mol

Sequence | relative binding free energy
CAGAGCACGTGGGTGA | -0.19 kcal/mol
GTTAACACGTGTGCAG | 0.06 kcal/mol
TAAGTCACGTGGAGGG | -0.04 kcal/mol
TGGGTCACGTGTACTG | 0.14 kcal/mol
CATTTCACGTGGATTT | 0.13 kcal/mol
ATATACACGTGTCGGT | -0.02 kcal/mol
CAGGGCACGTGTGCGT | -0.09 kcal/mol
AGGTCCACGTGCTAGG | 0.12 kcal/mol
AGGCCCACGTGGGTGG | -0.28 kcal/mol
AGGTCCACGTGGGGTC | -0.17 kcal/mol
GTCGGCACGTGGTGAG | -0.02 kcal/mol
CAACTCACGTGTTGGT | 0.31 kcal/mol
GGAGACACGTGGAGGA | 0.06 kcal/mol
TGGTGCACGTGGAGCT | -0.04 kcal/mol
TAAATCACGTGTTTGT | 0.18 kcal/mol
TTAGCCACGTGGCGTG | -0.2 kcal/mol
GGGGACACGTGGGCCT | -0.19 kcal/mol
GATGGCACGTGATGGT | 0.17 kcal/mol
GTGTTCACGTGTCGGG | 0.29 kcal/mol
TGCATCACGTGTGTGG | 0.13 kcal/mol
ATTGGCACGTGATAAG | -0.09 kcal/mol
CGTGGCACGTGCAATG | -0.03 kcal/mol
ATTTTCACGTGACTGT | 0.19 kcal/mol
AAATGCACGTGAGATT | 0.28 kcal/mol
TGACTCACGTGGGGGG | 0.03 kcal/mol

Sequence | relative binding free energy
TCTTGCACGTGATTAG | 0.15 kcal/mol
GGGGTCACGTGAGAAC | 0.48 kcal/mol
TCTTTCACGTGTGGGG | 0.4 kcal/mol
TGATACACGTGATGTT | 0.19 kcal/mol
AATTTCACGTGTCTGT | 0.31 kcal/mol
GTATGCACGTGTGTCG | 0.06 kcal/mol
CTTTACACGTGTAGGG | 0.21 kcal/mol
ATAGGCACGTGCCGGG | -0.14 kcal/mol
TATTTCACGTGGATTC | 0.16 kcal/mol
GTGTGCACGTGGCATT | -0.13 kcal/mol
ATGGACACGTGACGTG | 0.17 kcal/mol
AGTCTCACGTGGGGTG | 0.07 kcal/mol
AATGTCACGTGGGTCG | 0.07 kcal/mol
ATGAGCACGTGCGTTG | -0.25 kcal/mol
CGATGCACGTGTTAGT | 0.04 kcal/mol
CCTGACACGTGTGGGT | 0.07 kcal/mol
GTGTTCACGTGGACTA | 0.31 kcal/mol
GTTGGCACGTGGGTCC | -0.14 kcal/mol
TGGAGCACGTGTCAGG | -0.07 kcal/mol
ATTTTCACGTGGTCAT | 0.19 kcal/mol
TAAGGCACGTGGAGTA | -0.15 kcal/mol
